Assay results from US12551573B2, “Compositions and methods for the targeting of PCSK9” (Scribe Therapeutics Inc., priority 2022, dated 2026).

Legend:
HBEGF locus = format: cell-based, human; conditions: high-throughput screen of dXR repression of the HBEGF gene; change in abundance of each domain in the library before and after diphtheria toxin selection
B2M locus = assay: B2M repression (HLA-negative cells by flow cytometry) in HEK293T cells transfected with LTRP plasmids; format: cell-based, human; conditions: LTRP5 without ADD, scaffold 316 spacer 7.165, days 6/7 to 26/27, vs LTRP5-ZIM3
Experimental: Each construct was tested in triplicate.
Each construct was tested in triplicate. […] Cells were harvested for repression analysis at day 5, day 12, day 21, and day 51 post-transfection.
Each construct was tested in triplicate. […] Cells were harvested for repression analysis at day 8, day 13, day 20, and day 27 post-transfection. […] In addition, cells were also harvested on day 5 post-transfection for gDNA extraction for bisulfite sequencing to assess off-target methylation at the non-targeted VEGFA locus, which was performed using similar methods as described in Example 13.
HEK293T cells were transfected as described in Example 14, except that the cells were transfected with 50 ng each of a plasmid encoding the LTRP construct and a plasmid encoding the gRNA. […] 72 of the 95 top repressor domains were assessed together in one experiment where B2M expression was measured at 7, 14, 19, and 26 days after transfection, and the data shown in Tables 57-60.

Molecule	Log2 (fold change) (HBEGF locus)	B2M repression by LTRP5 constructs with enhanced repressor domains (B2M locus)
DOMAIN_27604: one of the nine most effective repressor domains (protein, listed as Ailuropoda melanoleuca) LLTFEDVAVSFSEEEWELLDPPQKTLYNDVMQENYETVISLGLKLKNDTGNDQPISISALEMQASGSKVLRKARMKVAQKT	2.8198	most effective repressor domains
DOMAIN_30173: one of the nine most effective repressor domains (protein, Phyllostomus discolor) VAFRDVIVDFTQEEWQQLKPAQKDLYRDVMMEIYWNLVSLDLETEGDMNEPDPEKDSWEDRTSIVVVEGLMRNGAQGYACEKAGIQGCRV	2.2538	most effective repressor domains
